From the RNAGym collection of RNA variant scans (doi:10.7554/elife.90254)
Read counts are not given, so values of variants with three or more changes are uncertain.

B1: LINE1-full (parent)
chain: UACGUAGGUGGUUUUCCCCUGAUAGUGCUAAGGGGGCCUGGAAGUUUGGACUGGGCAGAGCUCAACACAGCGUGGCAAAGUGGCUGUGGCUAGACUGCCUCUCUGGAUUCCUCGUCACUCAGCAGGGCAUCUCUGAGAGAAAUGCC

Variants of: B1
Assay: self-cleavage, relative activity (ratio to wild type); higher = more cleavage; in vitro, sequencing; the parent is a self-cleaving ribozyme
UACGUAGGUGGUCUUCCCCUGAUAGUGCUAAGGGGGCCUGGAAGUCUGGACUGGGCAGAGCUCAACACAGCGUGGCAAAGUGGCAGUGGCUAGACUGCCUCUCUGGAUUCCUCGUCCCACAGCAGGGCAUCUCUGAGAGAAAUGCC showed a self-cleavage of 0.31.
UACGUAGGUGGUCUUCCCCUGAUAGUGCUAAGGGGGCCCGGAAGUUUGGACUGGGCAGUGCUCAACACAGCGUGGCAAAGUGGCUGUGGCUAGACAGCCUCUCUGGAUUCCUCGUCACUCAGCAGGGCAUCUCUGAGAGAAAUGCC gave a self-cleavage of 0.07.
In the case of UACGUAGGUGGUCUUCCCCUGAUAGUGCUAAGGGGGCCCGGAAGUUUGGACUGGGCAGAGCUCAACACAGCGUGGCAAAGUGGCUGUGGCUAGACUGCCUCACUGGAUUCCUCGUCACUCAGCAGGGCAUCUCUGAGAGAAAUGCC, the self-cleavage is reported as 0.85.
UACGUAGGUGGUCUUCCCCUGAUAGUGCUAAGGGGGCCUGGAAGAUUGGACUGGGCAGAGCUCAACACAGCGUGGCAAAGUGGCUGUGGCUAGACUGCCUCUCUGGAUUCCUCGUCACCCAGCAGGGCGUCUCUGAGAGAAAUGCC gave a self-cleavage of 0.74.
With UACGUAGGUGGUCUUCCCCUGAUAGUGCUAAGGGGGCCAGGAAGUUUGGACUGGGCAGAGCUCAACACAGCGUGGCAAAGAGGCUGUGGCUAGACUGCCUCUCUGGAUUCCUCGUCACUCAGCAGGGCAUCUCUGAGAGAGAUGCC the self-cleavage was 2.1.
For UACGUAGGUGGUCUUCCCCUGAUAGUGCUAAGGGGGCCUGGAAGACUGGGCUGGGCAGAGCUCAACACAGCGUGGCAAAGUGGCUGUGGCUAGACAGCCUCUCUGGAUUCCUCGUCACUCAGCAGGGCAUCUCUGAGAGAAAUGCC, the self-cleavage was 0.14.
In the case of UACGUAGGUGGUCUUCCCCUGAUAGUGCUAAGGGGGCCUGGAAGUGUGGACUGGGCAGAGCUCAACACGGCGUGGCAAAGUGGCUGUGGCUAGACUGCCUCUCUGGAUUCCUCGUCACUCAGCAGGGCAUCUCUGAGAGAAAUGCC, the self-cleavage is reported as 0.5.
For UACGUAGGUGGUCUUCCCCUGAUAGUGCUAAGGGGGCCAGGAAGUUCGGACUGGGCUGAGCUCAACACAGCGUGGCAAAGUGGCUGUGGCUAGACUGCCUCUCUGGAUUCCUCGUCAUUCAGCAGGGCAUCUCUGAGAGAAAUGCC, the self-cleavage was 0.17.
Work on UACGUAGGUGGUCUUCCCCUGAUAGUGCUAAGGGGGCCCGGAAGUUUGGACUGGGCAGAGCUCAACACAGCGUGGCAAAGUGGCUGCGGCUAGACUGCCUCUCUGGAUUCCUCGUCACUCAGCAGGGCAUCUCAGAGAGAAAUGCC yielded a self-cleavage of 0.35.
UACGUAGGUGGUCUUCCCCUGAUAGUGCUAAGGGGGCCUGGAAGCUUGGACUGGGCAGAGCCCAACACAGCGUGGCAAAGUGGCAGUGGCUAGACUGCCUCUCUGGACUCCUCGUCACUCAGCAGGGCAUCUCUGAGAGAAAUGCC gave a self-cleavage of 0.
In the case of UACGUAGGUGGUCUUCCCCUGAUAGUGCUAAGGGGGCCCGGAAGUUUGGACUGGGCAGAGCUCAACACAGCGUGGCAGAGUGGCUGUGGCUAGACUGCCUCUCUGGAUUCCUCGUCACUCAGCAGGGCAUCUCUGAGAGAAAUGCC, the self-cleavage is reported as 0.67.
In the case of UACGUAGGUGGUCUUCCCCUGAUAGUGCUAAGGGGGCCUGGAAGUUAGGACUGGGCAGAGCACAACACAGCGUGGCAAAGCGGCUGUGGCUAGACUGCCUCUCUGGAUUCCUCGUCACUCAGCAGGGCAUCUCUGAGAGAAAUGCC, the self-cleavage is reported as 0.21.
With UACGUAGGUGGUCUUCCCCUGAUAGUGCUAAGGGGGCCUGGAAGAUUGGACUGGGCAGAGCUCAACACAGCGUGGCAAAGUGGCUGUGGCUAGACUGCCCCUCUGGACUCCUCGUCACUCAGCAGGGCAUCUCUGAGAGAAAUGCC the self-cleavage was 1.69.
In the case of UACGUAGGUGGUCUUCCCCUGAUAGUGCUAAGGGGGCCAGGAAGUUCGGACUGGGCAGAGCUCAACACAGCGUGGCAAAGUGGCUGUGGCUAGACUGCCUCUCUGGACUCCUCGUCACUCAGCAGGGCAUCUCUGAGAGAAAUGCC, the self-cleavage is reported as 2.6.
UACGUAGGUGGUCUUCCCCUGAUAGUGCUAAGGGGGCCUGGAAGUAUGGACUGGGCAGAGCUCAACACAGCGUGGCUAAGUGGCUGUGGCUAGACAGCCUCUCUGGAUUCCUCGUCACUCAGCAGGGCAUCUCUGAGAGAAAUGCC showed a self-cleavage of 0.13.
UACGUAGGUGGUCUUCCCCUGAUAGUGCUAAGGGGGCCGGGAAGUUUGGACUGGGCAGAGCUCAACACAGCGUGGCAAAGUGGCUGUGGCUAGACUGCCUCUCUGGAUUCCUCGUCACUCAGCAGGGCGUCUCUGAGAGAAAUGCC showed a self-cleavage of 1.06.
With UACGUAGGUGGUCUUCCCCUGAUAGUGCUAAGGGGGCCUGGAAGUCUGGACUGGGCAGAGCCCAACACAGCGUGGCAAAGUGGCUGUGGCUAGACUGCCUCUCUGGAUUCCUCGUCACUCAGCAGGGCAUCUCUGAGAGAAAUGCC the self-cleavage was 0.28.
Variant UACGUAGGUGGUCUUCCCCUGAUAGUGCUAAGGGGGCCUGGAAGUCUGGACUGGGCAGAGCUCAACACAGCGUGGCAAAGUGGCUGAGGCUAGACUGCCUCUCUGGAUUCCUCGUCACUCAGCAGGGCAUCUCUGAGAGAAAUGCC has a self-cleavage of 0.21.
With UACGUAGGUGGUCUUCCCCUGAUAGUGCUAAGGGGGCCCGGAAGUUUGGACUGGGCAGAGCUCAACACUGCGUGGCAAAGUGGCUGUGGCUAGACUGCCUCUCUGGAUUCCUCGUCACUCAGCAGGGCAUCUCUGAGAGAAAUGCC the self-cleavage was 0.07.
UACGUAGGUGGUCUUCCCCUGAUAGUGCUAAGGGGGCCUGGAAGUUAGGACUGGGCAGAGCUCAACACAGCGUGGCGAAGUGGCUGUGGCUAGACUGCCUCUCUGGAUUCCUCGUCACUCAGCAGGGCAUCUCUGAGAGAAAUGCC gave a self-cleavage of 0.81.
